Sequences and labels used below:
B1: GPR68, Q15743 (parent)
chain: MGNITADNSSMSCTIDHTIHQTLAPVVYVTVLVVGFPANCLSLYFGYLQIKARNELGVYLCNLTVADLFYICSLPFWLQYVLQHDNWSHGDLSCQVCGILLYENIYISVGFLCCISVDRYLAVAHPFRFHQFRTLKAAVGVSVVIWAKELLTSIYFLMHEEVIEDENQHRVCFEHYPIQAWQRAINYYRFLVGFLFPICLLLASYQGILRAVRRSHGTQKSRKDQIQRLVLSTVVIFLACFLPYHVLLLVRSVWEASCDFAKGVFNAYHFSLLLTSFNCVADPVLYCFVSETTHRDLARLRGACLAFLTCSRTGRAREAYPLGAPEASGKSGAQGEEPELLTKLHPAFQTPNSPGSGGFPTGRLA

Variants of B1 are the subject of data set [1]. As to the kind of experiment: cAMP reporter score (Enrich2 score, wild type = 0); higher = more signal; HEK293T, FACS bins.
In data set [2] the parent is B1. Description: surface expression score (Enrich2 score, wild type = 0); higher = more signal; HEK293T, FACS bins.

Scores whose standard error is large were omitted. Two further conditions of the source, in which the scores hardly spread, are not listed. Names with del lack the residues named; names with ins carry added residues between the positions named. For some assays here: The concentration of ogerin is not given here.

As for F76_W77insGS, the cAMP reporter score in data set [1] (pH 6) is -0.953. Besides, the surface expression score in data set [2] is -1.72.

Consider S93_C94insGSG, for which the cAMP reporter score in data set [1] (pH 6) was -1.24; in data set [1] (pH 6, modulator: ogerin), -0.639; in data set [1] (pH 6.5, modulator: ogerin), -0.539. Moreover, the surface expression score in data set [2] was -0.126.

In the case of MGNITADNSSMSCTIDHTIHQTLAPVVYVTVLVVGFPANCLSLYFGYLQIKARNELGVYLCNLTVADLFYICSLPFWLQYVLQHDNWSHGDLSCQVCGILTYENIYISVGFLCCISVDRYLAVAHPFRFHQFRTLKAAVGVSVVIWAKELLTSIYFLMHEEVIEDENQHRVCFEHYPIQAWQRAINYYRFLVGFLFPICLLLASYQGILRAVRRSHGTQKSRKDQIQRLVLSTVVIFLACFLPYHVLLLVRSVWEASCDFAKGVFNAYHFSLLLTSFNCVADPVLYCFVSETTHRDLARLRGACLAFLTCSRTGRAREAYPLGAPEASGKSGAQGEEPELLTKLHPAFQTPNSPGSGGFPTGRLA [L101T], the cAMP reporter score in data set [1] (pH 6) was -0.851; in data set [1] (pH 6, modulator: ogerin), -3.37.

Turning to MGNITADNSSMSCTIDHTIHQTLAPVVYVTVLVVGFPANCLSLYFGYLQIKARNELGVYLCNLTVADLFYICSLPFWLQYVLQHDNWSHGDESCQVCGILLYENIYISVGFLCCISVDRYLAVAHPFRFHQFRTLKAAVGVSVVIWAKELLTSIYFLMHEEVIEDENQHRVCFEHYPIQAWQRAINYYRFLVGFLFPICLLLASYQGILRAVRRSHGTQKSRKDQIQRLVLSTVVIFLACFLPYHVLLLVRSVWEASCDFAKGVFNAYHFSLLLTSFNCVADPVLYCFVSETTHRDLARLRGACLAFLTCSRTGRAREAYPLGAPEASGKSGAQGEEPELLTKLHPAFQTPNSPGSGGFPTGRLA [L92E], the cAMP reporter score in data set [1] (pH 6) is -0.661; in data set [1] (pH 6, modulator: ogerin), -0.447; in data set [1] (pH 6.5, modulator: ogerin), -2.75.

For the variant MGNITADNSSMSCTIDHTIHQTLAPVVYVTVLVVGFPANCLSLYFGYLQIKARNELGVYLCNLTVADLFYICSLPFWLQYVLQHDNWSHGDLSCQVCGIFLYENIYISVGFLCCISVDRYLAVAHPFRFHQFRTLKAAVGVSVVIWAKELLTSIYFLMHEEVIEDENQHRVCFEHYPIQAWQRAINYYRFLVGFLFPICLLLASYQGILRAVRRSHGTQKSRKDQIQRLVLSTVVIFLACFLPYHVLLLVRSVWEASCDFAKGVFNAYHFSLLLTSFNCVADPVLYCFVSETTHRDLARLRGACLAFLTCSRTGRAREAYPLGAPEASGKSGAQGEEPELLTKLHPAFQTPNSPGSGGFPTGRLA [L100F], the cAMP reporter score in data set [1] (pH 6) was -0.4; in data set [1] (pH 6.5, modulator: ogerin), -0.432. Also, the surface expression score in data set [2] is -0.369.

With MGNITADNSSMSCTIDHTIHQTLAPVVYVTVLVVGFPANCLSLYFGYLQIKARNELGVYLCNLTVADLFYICSLPFWLQYVLQHDNWSHGDLSCQVCGIVLYENIYISVGFLCCISVDRYLAVAHPFRFHQFRTLKAAVGVSVVIWAKELLTSIYFLMHEEVIEDENQHRVCFEHYPIQAWQRAINYYRFLVGFLFPICLLLASYQGILRAVRRSHGTQKSRKDQIQRLVLSTVVIFLACFLPYHVLLLVRSVWEASCDFAKGVFNAYHFSLLLTSFNCVADPVLYCFVSETTHRDLARLRGACLAFLTCSRTGRAREAYPLGAPEASGKSGAQGEEPELLTKLHPAFQTPNSPGSGGFPTGRLA [L100V], the cAMP reporter score was 0.057 in data set [1] (pH 6) and -1.09 in data set [1] (pH 6, modulator: ogerin). In addition, the surface expression score in data set [2] was -0.273.

As for R53_N54insGSG, the cAMP reporter score in data set [1] (pH 6) is 0.361; in data set [1] (pH 6.5, modulator: ogerin), -0.439.

Regarding I99_L101del, the cAMP reporter score was -1.21 in data set [1] (pH 6) and -1.62 in data set [1] (pH 6.5, modulator: ogerin). Besides, the surface expression score in data set [2] was -2.29.

On to MGNITADNSSMSCTIDHTIHQTLAPVVYVTVLVVGFPANCLSLYFGYLQIKARNELGVYLCNLTVADLFYICSLTFWLQYVLQHDNWSHGDLSCQVCGILLYENIYISVGFLCCISVDRYLAVAHPFRFHQFRTLKAAVGVSVVIWAKELLTSIYFLMHEEVIEDENQHRVCFEHYPIQAWQRAINYYRFLVGFLFPICLLLASYQGILRAVRRSHGTQKSRKDQIQRLVLSTVVIFLACFLPYHVLLLVRSVWEASCDFAKGVFNAYHFSLLLTSFNCVADPVLYCFVSETTHRDLARLRGACLAFLTCSRTGRAREAYPLGAPEASGKSGAQGEEPELLTKLHPAFQTPNSPGSGGFPTGRLA [P75T], for which, in data set [1] (pH 6), the cAMP reporter score was -0.482. Moreover, in data set [2], the surface expression score is -0.428.

On to MGNITADNSSMSCTIDHTIHQTLAPVVYVTVLVVGFPANCLSLYFGYLQIKARNELGVYLCNLTVADLFYICSLPWWLQYVLQHDNWSHGDLSCQVCGILLYENIYISVGFLCCISVDRYLAVAHPFRFHQFRTLKAAVGVSVVIWAKELLTSIYFLMHEEVIEDENQHRVCFEHYPIQAWQRAINYYRFLVGFLFPICLLLASYQGILRAVRRSHGTQKSRKDQIQRLVLSTVVIFLACFLPYHVLLLVRSVWEASCDFAKGVFNAYHFSLLLTSFNCVADPVLYCFVSETTHRDLARLRGACLAFLTCSRTGRAREAYPLGAPEASGKSGAQGEEPELLTKLHPAFQTPNSPGSGGFPTGRLA [F76W], for which the cAMP reporter score in data set [1] (pH 6) was -0.246; in data set [1] (pH 6, modulator: ogerin), 0.059; in data set [1] (pH 6.5, modulator: ogerin), -0.035. Moreover, the surface expression score in data set [2] is -0.449.

In the case of L60_C61del, the cAMP reporter score in data set [1] (pH 6) was 0.479; in data set [1] (pH 6, modulator: ogerin), -0.663; in data set [1] (pH 6.5, modulator: ogerin), -1.93. For the same variant, the surface expression score in data set [2] was -2.77.

The values are drawn from the GPR68 mutational scans of Howard et al. (2025).
